According to publication PMC4336329 (PLoS ONE, 2015):
In all, about 310,000 compounds went through this assay and about 2,200 (0.71%) showed an effect of 50% or more. The effect is printed as a negative number. This is one part of the list.

These molecules were tested against human ether-à-go-go-related gene (hERG) potassium channel (human, UniProt Q12809) (assay: primary screen, population patch clamp on CHO cells stably expressing hERG).
Sequence of human ether-à-go-go-related gene (hERG) potassium channel (Q12809 whole entry, looked up): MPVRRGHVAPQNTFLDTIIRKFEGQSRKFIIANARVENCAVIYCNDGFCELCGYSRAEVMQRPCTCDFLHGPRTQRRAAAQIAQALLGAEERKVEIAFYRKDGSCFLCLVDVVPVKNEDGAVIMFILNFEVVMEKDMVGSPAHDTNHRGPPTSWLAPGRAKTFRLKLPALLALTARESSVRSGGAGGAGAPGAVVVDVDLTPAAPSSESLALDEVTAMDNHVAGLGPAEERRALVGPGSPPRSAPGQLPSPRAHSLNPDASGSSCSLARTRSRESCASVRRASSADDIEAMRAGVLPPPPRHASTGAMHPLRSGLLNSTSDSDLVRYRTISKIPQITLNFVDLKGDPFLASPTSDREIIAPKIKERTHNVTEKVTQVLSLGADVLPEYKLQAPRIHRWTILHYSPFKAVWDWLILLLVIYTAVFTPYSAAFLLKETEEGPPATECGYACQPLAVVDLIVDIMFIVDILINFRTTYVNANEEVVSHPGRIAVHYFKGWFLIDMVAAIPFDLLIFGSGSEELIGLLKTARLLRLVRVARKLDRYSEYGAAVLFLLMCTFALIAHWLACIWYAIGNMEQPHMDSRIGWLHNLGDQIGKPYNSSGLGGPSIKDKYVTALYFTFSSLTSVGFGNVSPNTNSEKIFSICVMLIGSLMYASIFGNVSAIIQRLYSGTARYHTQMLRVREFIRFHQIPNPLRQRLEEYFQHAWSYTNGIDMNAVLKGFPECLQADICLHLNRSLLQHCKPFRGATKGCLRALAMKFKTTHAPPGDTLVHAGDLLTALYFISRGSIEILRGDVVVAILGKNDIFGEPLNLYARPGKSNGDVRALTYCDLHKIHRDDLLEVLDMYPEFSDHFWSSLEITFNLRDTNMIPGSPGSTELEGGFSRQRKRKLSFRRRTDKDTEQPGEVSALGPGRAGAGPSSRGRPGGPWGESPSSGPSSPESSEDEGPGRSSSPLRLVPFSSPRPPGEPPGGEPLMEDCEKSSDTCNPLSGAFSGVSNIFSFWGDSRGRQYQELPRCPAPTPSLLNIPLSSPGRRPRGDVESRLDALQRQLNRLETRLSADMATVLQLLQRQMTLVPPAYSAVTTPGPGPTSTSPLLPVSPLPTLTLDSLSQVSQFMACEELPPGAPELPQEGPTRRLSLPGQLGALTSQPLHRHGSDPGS

SMILES | hERG current change (%, negative = inhibition) at 1uM
O=C1CCC([N+](=O)[O-])C(c2cc3c(cc2Br)OCO3)N1 (stereo not shown) | 7.57%
CC(C)N(C)Cc1cn(C)nc1-c1ccc(Oc2ccccc2)cc1 | 3.93%
COC(=O)c1ccsc1NC(=O)c1ccc2c(c1)OCCO2 | 8.13%
C=CCOc1cccc(C2C(C(=O)c3ccco3)=C(O)C(=O)N2Cc2ccco2)c1 (stereo not shown) | 15%
Cc1c(C(=O)NCc2ccc3c(c2)cc(C)n3C)cccc1[N+](=O)[O-] | 9.17%
O=S(=O)(/N=C(/Nc1ccc(Cl)c(S(=O)(=O)N2CCOCC2)c1)c1ccc(F)cc1)c1ccccc1 | 1.79%
CSc1cccc(CNC(=O)C2CCC(=O)N(CCCN3CCCC3=O)C2)c1 (stereo not shown) | 25.3%
CC(C)(C)c1csc(NC(=O)c2cccs2)n1 | 7.51%
CCCCNC(=O)CSc1nnc(-c2c[nH]c3ccccc23)n1CC1CCCO1 (stereo not shown) | 2.47%
CC(=O)Nc1ccc(OC(=O)c2cccs2)cc1 | -11.1%
Cc1ccc(S(=O)(=O)N2CC(=O)Nc3ccccc32)cc1 | -1.29%
Cn1nc(C(=O)NCCc2ccc(S(N)(=O)=O)cc2)c2c1-c1ccccc1S(=O)(=O)C2 | 11%
COc1ccccc1N/N=C1\COC(C)(C)CC1=O | 10.4%
COc1cc2nc(N(CCCN(C)C)C(=O)c3ccc(S(=O)(=O)N4CCc5ccccc54)cc3)sc2cc1OC.Cl | 4.8%
NC(=O)CSc1nc2cc(Cl)ccc2c(=O)n1C1CCCCC1 | 18.7%
CC(=O)Nc1ccc(NC2CCCCC2NS(=O)(=O)c2ccccc2)cc1 (stereo not shown) | 13.3%
CC(C)OC(=O)CSc1nnc(Cc2ccccc2)n1C | -0.231%
COc1cccc(N2CCC(N3CCN(C)C(CCO)C3)CC2)c1 (stereo not shown) | 20%
CCOc1ccc2nc(N/C(N)=N/C(=S)Nc3cccc(OC)c3)nc(C)c2c1 | 8.15%
CCOC(=O)NN1C(=O)c2ccccc2NC1c1cccs1 (stereo not shown) | -13.2%

SMILES | hERG current change (%, negative = inhibition) at 1uM
COCCNC(=O)C(c1ccc(F)cc1)N(Cc1ccccc1)C(=O)CCC(=O)Nc1ccccn1 (stereo not shown) | 11.9%
O=C(CN1C(=O)C2C3C=CC(C4CC34)C2C1=O)Oc1ccccc1 (stereo not shown) | 12%
Cc1ccc(CCNC(=O)CS(=O)Cc2nc(-c3cccc(C)c3)oc2C)cc1 (stereo not shown) | 5.88%
Cc1ccc(N2CCN(S(=O)(=O)N(C)C)CC2)cc1C | 13.5%
NC(=S)N/N=C1\CC(n2nnn(-c3cccc(Cl)c3)c2=S)C2COC1O2 (stereo not shown) | -8.57%
CCOC(=O)C1CCN(C(=O)CN2C(=O)NC3(CCCCC3)C2=O)CC1 | 8.81%
CCCS(=O)(=O)N1CCCC(C(=O)NCc2cccnc2)C1 (stereo not shown) | 13.7%
Cc1ccc2nc(SCC(=O)OCc3ccccc3)nc(=O)n2c1 | -10.9%
CC(=O)c1c(N2CCN(Cc3ccccc3)CC2)nc(=S)n(Cc2ccccc2)c1C | -4.24%
Cn1cc(-c2ccccc2C(=O)O)c(=O)c2ccccc21 | 10.3%
N#Cc1c(NC(=O)CSCC(=O)O)sc2c1CCCC2 | 11.9%
Fc1c(F)c(C(F)(F)F)c(F)c(F)c1N/N=C\c1cccs1 | 16.6%
O=C(Nc1ccccc1Cl)c1cc(S(=O)(=O)N2CCCCC2)ccc1N1CCOCC1 | -5.21%
COc1ccc2[nH]c(C(=O)O)c(NC(=O)c3ccccc3[N+](=O)[O-])c2c1 | 10.2%
CCOC(=O)c1ccc(NC(=O)c2cc3ccccc3o2)cc1 | -1.6%
COc1cccc(-c2noc(-c3cccs3)n2)c1 | 4.78%
C/C(=N\NC(=O)c1cccc(Br)c1)c1ccccn1 | 3.09%
COc1ccccc1C(CCNS(=O)(=O)c1ccc(C)cc1)c1ccco1 (stereo not shown) | 10.3%
Cc1ccnc(Cc2ccccc2)n1 | 10.1%
COc1ccc(-c2cc(C(=O)N3CCN(c4ccccc4OC)CC3)no2)cc1 | 17.6%

SMILES | hERG current change (%, negative = inhibition) at 1uM
COc1ccc(NC(=O)C2CC(=O)OC23CCCCC3)cc1 (stereo not shown) | 7.71%
COc1ccccc1-n1nnnc1SCC(=O)Nc1ccc(C)c(N)c1 | 12.1%
O=C1CC(c2c[nH]c3ccccc23)C(=O)N1 (stereo not shown) | 8.36%
O=C(NCCN1CCN(c2ccccc2)CC1)Nc1cccc(Cl)c1 | 8.45%
C/C(=N/NC(=O)CNC(=O)COc1cccc(C)c1)c1ccc(Cl)cc1 | 18.5%
Nc1nc(N)c(N=Nc2ccc(Cl)cc2)c(=O)[nH]1 | 12.5%
COc1cccc(/C=C/C(=O)c2ccc(NC3=NCCCS3)cc2)c1 | 7.27%
NS(=O)(=O)c1ccc(CCNC(=O)C2CCC(CNS(=O)(=O)c3ccc(Br)s3)CC2)cc1 (stereo not shown) | 15.6%
Cc1cc(NS(=O)(=O)c2c(C)c(C)cc(C)c2C)no1 | -3.16%
CCn1nnc(NC(=O)c2ccc(Br)o2)n1 | 19.8%
Cn1nc(C(=O)Nc2nc(-c3ccc(F)cc3)cs2)ccc1=O | 8.27%
O=C(Cn1nc(Cc2cccnc2)c2ccccc2c1=O)NCc1ccc2c(c1)OCO2 | 0.905%
CC1CCN(c2ccc(NC(=O)c3cccnc3)cc2)CC1 | 8.05%
COc1ccc(NC(=O)Nc2ccc3c(c2)N(C)C(=O)CS3)cc1Cl | 4.06%
Cc1ccc(C(c2nnnn2C2CCCCC2)N2CCc3ccccc32)cc1 (stereo not shown) | 3.37%
CCC1Oc2ccc(C)cc2N(CC(=O)NCCN2CCOCC2)C1=O (stereo not shown) | 16.6%
Cc1nc2c(n1C1CCCCC1)C(=O)c1ccccc1C2=O | 19.1%
COc1ccc(C(=O)NCc2nnc(SCC(=O)c3ccccc3)n2C)cc1 | -3.12%
